Publication PMC7819943, “Rice protein-binding microarrays: a tool to detect cis-acting elements near promoter regions in rice”
The list shows a part of the results.

Biological target: T1, OsWOX13 (Oryza sativa, UniProt Q5QMM3 1-267)
T1 sequence: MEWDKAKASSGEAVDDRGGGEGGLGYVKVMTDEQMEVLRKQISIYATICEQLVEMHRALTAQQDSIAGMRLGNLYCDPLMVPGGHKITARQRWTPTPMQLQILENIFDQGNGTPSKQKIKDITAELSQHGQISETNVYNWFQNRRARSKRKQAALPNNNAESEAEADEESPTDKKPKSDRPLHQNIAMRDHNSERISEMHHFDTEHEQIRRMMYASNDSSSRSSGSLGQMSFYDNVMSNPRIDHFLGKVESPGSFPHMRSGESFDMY
Experiment: protein-binding microarray (RPBM); PBS, 2% BSA, 51.3 ng/ul salmon testes DNA, 50 uM zinc acetate, 200 nM TF, 25 C, 1 h; high values mean tight binding
Conditions: protein: recombinant; tags: N-terminal polyhistidine and DsRed monomer fusion (pET32a); label: CyDye5-dUTP incorporated in the synthesized complementary strand; 3' TTTTT single-stranded linker to array surface; dsDNA, one strand shown
Summary of the method: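 Transcription factors were each fused at the N-terminus to a polyhistidine tag plus DsRed and expressed in E. coli BL21-CodonPlus before Ni–NTA purification. Binding to a double-stranded custom Agilent array was carried out with 200 nM protein at 25 °C for 1 h in PBS, 2% BSA, salmon testes DNA and 50 µM zinc acetate. The binding signal is per-feature fluorescence intensity, in arbitrary units, on an Axon 4000B scanner.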

First: ACTTACTGATACTAATTTGCTTCTTGGTGGGATAATGGGACGGAGTCACCTAGTGCAG
Second: TTTAGGTTGTCAATGCTAATCAACAGTGTATTGATACACACGGAGTCACCTAGTGCAG
The binding signal of the first is higher: 19900 fluorescence intensity (a.u.) for the first, 7210 fluorescence intensity (a.u.) for the second.

Going from “GCACGTGATTAAATTTATACTTTAAAACATACTACGTTCTCGGAGTCACCTAGTGCAG” to “GGTGTGACCATATATTAATTATGTAATACTCCCTCCATATCGGAGTCACCTAGTGCAG”, the binding signal falls from 30200 fluorescence intensity (a.u.) to 5070 fluorescence intensity (a.u.).

Compared with “CATGCCATTTTCAGAGATTGATTAATCTGTTGTTTATGTCCGGAGTCACCTAGTGCAG”, “TGTGCTAACTGTTAGTGGTGACTGGTGACAAGTACATCACCGGAGTCACCTAGTGCAG” is lower in binding signal: 16500 fluorescence intensity (a.u.) for the first, 5650 fluorescence intensity (a.u.) for the second.

Going from “GAAATGATGGAAAATAGATGTCTTTTAGAGAGAAGAATCTCGGAGTCACCTAGTGCAG” to “TTCAGTAATTTGCTATACTCTTTAGAAATATTATTACATGCGGAGTCACCTAGTGCAG”, the binding signal rises from 7560 fluorescence intensity (a.u.) to 9000 fluorescence intensity (a.u.).

Going from “ATAAAACATAATGATCTATTAGAACATGATTATTTAAGCACGGAGTCACCTAGTGCAG” to “AATTACGTGATGATTTGACAATGTGATGCTACAGTAAATACGGAGTCACCTAGTGCAG”, the binding signal rises from 3780 fluorescence intensity (a.u.) to 4800 fluorescence intensity (a.u.).

Going from “AATGTTAATTAGGAACTATTTATAATAAACATTAATAGCACGGAGTCACCTAGTGCAG” to “GTTGCTAATTGACAATCAGCCCCTTCCAGGGCCACTACATCGGAGTCACCTAGTGCAG”, the binding signal rises from 14000 fluorescence intensity (a.u.) to 50200 fluorescence intensity (a.u.).

Compared with “ATAAACAGCTTAGTTATCTTTACTGTTAATACGGCTCTTTCGGAGTCACCTAGTGCAG”, “CTTTTAGATGTGGCAATTAACTATTTGCCACTGGACCACCCGGAGTCACCTAGTGCAG” is higher in binding signal: 3980 fluorescence intensity (a.u.) for the first, 10200 fluorescence intensity (a.u.) for the second.

Going from “CATAATTTCCTTTCTCACCGGGCCACTCTCCACACCCGCTCGGAGTCACCTAGTGCAG” to “CTTAATTGTTGAACCGATCCGCAACGTACGTAACGCATTGCGGAGTCACCTAGTGCAG”, the binding signal rises from 13500 fluorescence intensity (a.u.) to 19600 fluorescence intensity (a.u.).

Going from “TATAAATTAATTTTAATTTTCTAATAAGCCAAATAAGCCACGGAGTCACCTAGTGCAG” to “TATTACATCGATCATATTGATTGTCGATTAGTACACCTTACGGAGTCACCTAGTGCAG”, the binding signal falls from 42500 fluorescence intensity (a.u.) to 5790 fluorescence intensity (a.u.).

First: GGTTAATATGGATTAATTACTACAACTGTTTTACTGCTTTCGGAGTCACCTAGTGCAG
Second: TGTCAATTTGTCAAAATAACGGTAGTGTTGAGAAATTTAACGGAGTCACCTAGTGCAG
The binding signal of the first is higher: 16300 fluorescence intensity (a.u.) for the first, 3160 fluorescence intensity (a.u.) for the second.

First: TCGACAACCAAATTTAATTTATAGTGTCATTGTCCAGGTTCGGAGTCACCTAGTGCAG
Second: GGCATTAACAGTTTTGCAATTTATCTCGACTAATCTTGCCCGGAGTCACCTAGTGCAG
The binding signal of the first is lower: 6140 fluorescence intensity (a.u.) for the first, 7440 fluorescence intensity (a.u.) for the second.

Compared with “TTCAATTGTAATCCAAGATAAATTGGGATCAAAGCCTTCACGGAGTCACCTAGTGCAG”, “TACTTATATTACTATGATGAGCAATTAACCATGCCCCGCCCGGAGTCACCTAGTGCAG” is lower in binding signal: 3740 fluorescence intensity (a.u.) for the first, 3220 fluorescence intensity (a.u.) for the second.

First: TATATGGATTAACAGATAATTAGCAGCGGGGTTAGCAAAACGGAGTCACCTAGTGCAG
Second: GCATTTAATTAAATCTAGAACTAATCCGGTTGATTTCGGCCGGAGTCACCTAGTGCAG
The binding signal of the first is lower: 21000 fluorescence intensity (a.u.) for the first, 31600 fluorescence intensity (a.u.) for the second.

Going from “TGGTGATCGAGTTAACTAATTTCTTTGTCCTCCCTGAGACCGGAGTCACCTAGTGCAG” to “GCATCCCTGATTTGAACCCGTGCGTGCACGGTCGGTCTCGCGGAGTCACCTAGTGCAG”, the binding signal falls from 11700 fluorescence intensity (a.u.) to 4210 fluorescence intensity (a.u.).

Going from “CGTCGGTGTGATTGATGGTGGTTTTGTTGTCTGATGATGACGGAGTCACCTAGTGCAG” to “ACTAACAGTTAGATTAAATTGATATCTCGTACCTCATATTCGGAGTCACCTAGTGCAG”, the binding signal falls from 30600 fluorescence intensity (a.u.) to 27400 fluorescence intensity (a.u.).

Compared with “AGGTAATGTAAACTAAACTTAGGTTAATTTCATCCTCAACCGGAGTCACCTAGTGCAG”, “CATGCATGCACAGGTGATTAGTAGTATGTAATTATGCCAGCGGAGTCACCTAGTGCAG” is lower in binding signal: 6850 fluorescence intensity (a.u.) for the first, 6080 fluorescence intensity (a.u.) for the second.

Going from “CCTTATAATTGCTACCTACTGGCGATAAGCAGTGAACTATCGGAGTCACCTAGTGCAG” to “GAGATGAATCTTTTAAGCCTAATTATGTCATGATTTGGTACGGAGTCACCTAGTGCAG”, the binding signal falls from 10700 fluorescence intensity (a.u.) to 6070 fluorescence intensity (a.u.).

First: TTTTCTAATCTAATCTAATCTAATCCAATCGGCCGATTAACGGAGTCACCTAGTGCAG
Second: AGCAGTTAACAGCTAAACATAAGATGAGAGACGATGGGTTCGGAGTCACCTAGTGCAG
The binding signal of the first is higher: 11100 fluorescence intensity (a.u.) for the first, 8130 fluorescence intensity (a.u.) for the second.

First: TATCAATGAATTACTGACAGATTGTGTCGTAGGGACCGAACGGAGTCACCTAGTGCAG
Second: CAAAATAAATTATCCTAATATGAAATGCGATGATTTCTAACGGAGTCACCTAGTGCAG
The binding signal of the first is lower: 14200 fluorescence intensity (a.u.) for the first, 17300 fluorescence intensity (a.u.) for the second.

First: TTCCCAAATTGATCATCATATAATGAAATCCAAAATTTCTCGGAGTCACCTAGTGCAG
Second: AGTAAATTATTCTTAAAAGTTTTCATATTATTCTTTTCATCGGAGTCACCTAGTGCAG
The binding signal of the first is higher: 24500 fluorescence intensity (a.u.) for the first, 9660 fluorescence intensity (a.u.) for the second.

Compared with “ATTAAAACTTAATCAATCACACGTTAATACCACCTCGTTTCGGAGTCACCTAGTGCAG”, “ATGTATTTAGATTAGGATTAGATTGTTTGTAGTGTCTACCCGGAGTCACCTAGTGCAG” is lower in binding signal: 31000 fluorescence intensity (a.u.) for the first, 22900 fluorescence intensity (a.u.) for the second.
